Results: the supplement of paper PMC3334620
Whole data set: some 33,000 sequences, median “E-score (-0.5 to 0.5)” near -0.054, cut for the highest 2% near 0.35. Some of the results follow.

Target: T1, Stb5 (UniProt P38699)
T1 sequence: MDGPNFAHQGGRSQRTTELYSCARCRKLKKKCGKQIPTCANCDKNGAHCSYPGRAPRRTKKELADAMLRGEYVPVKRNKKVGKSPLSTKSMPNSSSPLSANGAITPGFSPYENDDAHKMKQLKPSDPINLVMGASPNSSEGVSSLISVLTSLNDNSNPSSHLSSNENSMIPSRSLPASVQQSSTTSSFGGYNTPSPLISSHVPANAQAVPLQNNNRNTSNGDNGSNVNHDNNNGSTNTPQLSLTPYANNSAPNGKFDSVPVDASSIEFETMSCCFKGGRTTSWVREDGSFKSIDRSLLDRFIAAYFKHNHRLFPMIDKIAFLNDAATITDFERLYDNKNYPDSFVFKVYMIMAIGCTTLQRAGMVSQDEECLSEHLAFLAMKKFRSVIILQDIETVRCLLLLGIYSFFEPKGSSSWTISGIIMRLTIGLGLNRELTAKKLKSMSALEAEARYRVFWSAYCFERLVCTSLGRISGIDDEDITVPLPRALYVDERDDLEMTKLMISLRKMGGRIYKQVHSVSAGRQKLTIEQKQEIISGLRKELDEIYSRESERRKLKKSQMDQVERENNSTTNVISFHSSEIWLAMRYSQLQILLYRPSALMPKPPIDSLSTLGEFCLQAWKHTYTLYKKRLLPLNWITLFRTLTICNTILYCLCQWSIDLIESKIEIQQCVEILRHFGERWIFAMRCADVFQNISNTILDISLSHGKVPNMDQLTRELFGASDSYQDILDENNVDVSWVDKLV
Assay: PBM E-score (8-mer binding enrichment) (E-score (-0.5 to 0.5)); higher = stronger / more preferred TF binding; most listed sequences are background and not binding sites
Conditions: protein concentration: 200 nM; construct: GST-full length
Method: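 Universal 'all 10-mer' protein binding microarrays (Agilent AMADID 015681) probed with GST-tagged S. cerevisiae TFs (full-length or DBD) made by in vitro transcription/translation (PURExpress), about 100-200 nM. Bound TF was detected with fluorescent anti-GST. Each ungapped 8-mer (which stands for itself and its reverse complement) is scored by the PBM enrichment score (E-score), a modified Wilcoxon-Mann-Whitney statistic from -0.5 to +0.5, computed with the Universal PBM Analysis Suite. Scale: above 0.35 generally sequence-specific binding.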

Sequence	PBM E-score
CCGAAACA	0.131
ATTCCTCA	-0.185
ACACGTCA	-0.207
CTATCAGC	0.0418
CCATTGAA	-0.202
GGATCGTA	-0.0681
GTCGGCTA	0.142
GAGGGATA	-0.119
CTAACCCC	0.35
GGATCTAA	0.306
CGCTTACG	0.123
ATTACGTG	-0.159
ACACTCCA	-0.225
AAATCTCT	-0.219
GTAACTAC	0.109
CGACAGAC	-0.0246
CGGAGGCA	0.25
AGGTACAA	-0.28
CGAAGCCA	-0.199
ATTCCGAC	0.254
GCGCCTTA	0.0498
AACCACAA	-0.0375

Sequence	PBM E-score
AGCAATTA	-0.0401
AATGACTG	-0.262
AACTGAGG	-0.317
GGTGAACA	-0.192
ACGCAATC	-0.00211
ACGTTCCA	0.0356
AACTAGGT	0.116
CCTGGACG	-0.0351
CTTGGCTA	-0.364
CCACCCTC	-0.0697
CCCAGGAA	-0.286
ACGTTGCA	-0.249
GAAGACGA	-0.0433
ATTCGAAT	-0.0708
ATGCCGAA	0.255
AGTGGACG	-0.012
ACTATTTG	0.00075
GACCCCGC	0.391
AACCTGTA	-0.133
AAGTCTAT	-0.164
CATTTGGG	0.0668
CAAAGGAA	-0.195

Sequence	PBM E-score
CGCTATTA	0.357
AGGTATCG	0.11
CTGGGGTC	-0.163
GACATCTC	-0.0802
AAGAGGTA	0.191
TATGCGAA	-0.048
CGTTGTAG	-0.0209
AACGCTTA	-0.178
CTTAGGCA	-0.165
ACCGTCAC	0.223
ACCTGCTC	-0.0755
CCCCACTC	-0.0524
AGCTGGCG	0.0815
TAGAGTGA	-0.0586
CATGTAAC	0.00619
AGACTAAT	0.0139
ACCAGATA	-0.0521
CACCAATA	-0.00716
GCAATTCA	0.0191
GAGCCGTA	0.015
CGCACGTC	0.131
AAAAACAG	-0.202

Sequence	PBM E-score
AGGCAAAT	0.048
AGCAATAA	-0.216
GACTTGCA	0.0764
AACGGAAC	0.18
ATGCATGC	-0.0833
TCGACCCA	-0.256
AGATCGCT	-0.0278
CTCGCTAA	0.106
ATTCAAAT	-0.195
ATTACGGG	0.157
AGTTGTAT	-0.0451
TAAGATCA	-0.176
GAATATGC	0.225
GCAAGCCA	-0.233
GAGCGTTA	-0.0174
CTACGGAC	0.252
GATACGGA	0.243
ATTGGCAC	-0.242
AGACACCA	-0.13
CCTGTTGA	-0.0723
AGAGTACA	-0.0908
ACCCCGCA	0.382

Sequence	PBM E-score
ATTCTCTG	-0.214
AGTTATCA	-0.044
CGCCTCCG	0.15
GAGCTATA	0.0873
AGAACTAT	-0.0201
TGTATCAA	-0.0244
ACCCGAGC	0.0806
GCCAGACA	-0.0977
AGTGCTGG	-0.245
ATACCGGG	0.332
CTACTGAC	-0.111
GGTGTCAC	0.23
AGGCGAGG	-0.296
ACAAACTG	-0.197
ATGTTATC	0.114
CGGGAAGA	0.207
AGCTTACG	-0.00012
CCCACCTC	-0.103
GAGACAGC	-0.026
GCCGCTGA	0.138
AATGCTGA	-0.277
